The labels stand for the following.
T1: RBFOX1 RRM RbFoxmut (Fox-RRM*) (Homo sapiens, UniProt Q9NWB1 109-208, R118D;E147R;N151S;E152T)
T1 sequence: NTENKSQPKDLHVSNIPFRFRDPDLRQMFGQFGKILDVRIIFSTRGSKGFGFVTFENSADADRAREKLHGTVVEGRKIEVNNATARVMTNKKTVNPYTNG

B1: AGCACCG (DNA:RNA)
RNA: GGGAGACCGGAAUUCAGAUUGUCCAGCACCGUUAAAUCCCGUCGUAGCCACCA
DNA 1: CAATCTGAATTCCGGTCTCCC
DNA 2: TGGTGGCTACGACGGGATT
B2: CGUAGGA (DNA:RNA)
RNA: B1 RNA with A25C, C27U, C29G, C30G, G31A
DNA 1: CAATCTGAATTCCGGTCTCCC
DNA 2: TGGTGGCTACGACGGGATT
B3: ACGUCUG (DNA:RNA)
RNA: B1 RNA with G26C, C27G, A28U, C30U
DNA 1: CAATCTGAATTCCGGTCTCCC
DNA 2: TGGTGGCTACGACGGGATT
B4: AACUGGC (DNA:RNA)
RNA: B1 RNA with G26A, A28U, C29G, C30G, G31C
DNA 1: CAATCTGAATTCCGGTCTCCC
DNA 2: TGGTGGCTACGACGGGATT
B5: CUUUUGA (DNA:RNA)
RNA: GGGAGACCGGAAUUCAGAUUGUCCCUUUUGAUUAAAUCCCGUCGUAGCCACCA
DNA 1: CAATCTGAATTCCGGTCTCCC
DNA 2: TGGTGGCTACGACGGGATT
B6: GAUAGGC (DNA:RNA)
RNA: B5 RNA with C25G, U26A, U28A, U29G, A31C
DNA 1: CAATCTGAATTCCGGTCTCCC
DNA 2: TGGTGGCTACGACGGGATT
B7: GUUUUUC (DNA:RNA)
RNA: B5 RNA with C25G, G30U, A31C
DNA 1: CAATCTGAATTCCGGTCTCCC
DNA 2: TGGTGGCTACGACGGGATT
B8: GGCCUCA (DNA:RNA)
RNA: B1 RNA with A25G, A28C, C29U, G31A
DNA 1: CAATCTGAATTCCGGTCTCCC
DNA 2: TGGTGGCTACGACGGGATT
B9: CGGAAUC (DNA:RNA)
RNA: B1 RNA with A25C, C27G, C29A, C30U, G31C
DNA 1: CAATCTGAATTCCGGTCTCCC
DNA 2: TGGTGGCTACGACGGGATT
B10: CUAUGAA (DNA:RNA)
RNA: B5 RNA with U27A, U29G, G30A
DNA 1: CAATCTGAATTCCGGTCTCCC
DNA 2: TGGTGGCTACGACGGGATT
B11: CAGCGAU (DNA:RNA)
RNA: B5 RNA with U26A, U27G, U28C, U29G, G30A, A31U
DNA 1: CAATCTGAATTCCGGTCTCCC
DNA 2: TGGTGGCTACGACGGGATT
B12: UCGAAGU (DNA:RNA)
RNA: B1 RNA with A25U, G26C, C27G, C29A, C30G, G31U
DNA 1: CAATCTGAATTCCGGTCTCCC
DNA 2: TGGTGGCTACGACGGGATT
B13: AUAGCAC (DNA:RNA)
RNA: B1 RNA with G26U, C27A, A28G, C30A, G31C
DNA 1: CAATCTGAATTCCGGTCTCCC
DNA 2: TGGTGGCTACGACGGGATT
B14: AAUCACU (DNA:RNA)
RNA: B1 RNA with G26A, C27U, A28C, C29A, G31U
DNA 1: CAATCTGAATTCCGGTCTCCC
DNA 2: TGGTGGCTACGACGGGATT
B15: AUCACGA (DNA:RNA)
RNA: B1 RNA with G26U, C30G, G31A
DNA 1: CAATCTGAATTCCGGTCTCCC
DNA 2: TGGTGGCTACGACGGGATT
B16: ACUUAAC (DNA:RNA)
RNA: B5 RNA with C25A, U26C, U29A, G30A, A31C
DNA 1: CAATCTGAATTCCGGTCTCCC
DNA 2: TGGTGGCTACGACGGGATT
B17: CACAUAA (DNA:RNA)
RNA: B5 RNA with U26A, U27C, U28A, G30A
DNA 1: CAATCTGAATTCCGGTCTCCC
DNA 2: TGGTGGCTACGACGGGATT
B18: UGAUACC (DNA:RNA)
RNA: B1 RNA with A25U, C27A, A28U, C29A, G31C
DNA 1: CAATCTGAATTCCGGTCTCCC
DNA 2: TGGTGGCTACGACGGGATT
B19: UUUCCUA (DNA:RNA)
RNA: B5 RNA with C25U, U28C, U29C, G30U
DNA 1: CAATCTGAATTCCGGTCTCCC
DNA 2: TGGTGGCTACGACGGGATT
B20: CUUGCCC (DNA:RNA)
RNA: B5 RNA with U28G, U29C, G30C, A31C
DNA 1: CAATCTGAATTCCGGTCTCCC
DNA 2: TGGTGGCTACGACGGGATT
B21: GUCGAUG (DNA:RNA)
RNA: B1 RNA with A25G, G26U, A28G, C29A, C30U
DNA 1: CAATCTGAATTCCGGTCTCCC
DNA 2: TGGTGGCTACGACGGGATT
B22: GCGACAC (DNA:RNA)
RNA: B1 RNA with A25G, G26C, C27G, C30A, G31C
DNA 1: CAATCTGAATTCCGGTCTCCC
DNA 2: TGGTGGCTACGACGGGATT
B23: CUGAUAC (DNA:RNA)
RNA: B5 RNA with U27G, U28A, G30A, A31C
DNA 1: CAATCTGAATTCCGGTCTCCC
DNA 2: TGGTGGCTACGACGGGATT
B24: AUCUUGC (DNA:RNA)
RNA: B5 RNA with C25A, U27C, A31C
DNA 1: CAATCTGAATTCCGGTCTCCC
DNA 2: TGGTGGCTACGACGGGATT
B25: UGGGAGU (DNA:RNA)
RNA: B1 RNA with A25U, C27G, A28G, C29A, C30G, G31U
DNA 1: CAATCTGAATTCCGGTCTCCC
DNA 2: TGGTGGCTACGACGGGATT
B26: UUGUUAG (DNA:RNA)
RNA: B5 RNA with C25U, U27G, G30A, A31G
DNA 1: CAATCTGAATTCCGGTCTCCC
DNA 2: TGGTGGCTACGACGGGATT
B27: CCGACAG (DNA:RNA)
RNA: B1 RNA with A25C, G26C, C27G, C30A
DNA 1: CAATCTGAATTCCGGTCTCCC
DNA 2: TGGTGGCTACGACGGGATT
B28: UGAUGGU (DNA:RNA)
RNA: B5 RNA with C25U, U26G, U27A, U29G, A31U
DNA 1: CAATCTGAATTCCGGTCTCCC
DNA 2: TGGTGGCTACGACGGGATT
B29: GGUUAGC (DNA:RNA)
RNA: B5 RNA with C25G, U26G, U29A, A31C
DNA 1: CAATCTGAATTCCGGTCTCCC
DNA 2: TGGTGGCTACGACGGGATT
B30: AUACUAA (DNA:RNA)
RNA: B5 RNA with C25A, U27A, U28C, G30A
DNA 1: CAATCTGAATTCCGGTCTCCC
DNA 2: TGGTGGCTACGACGGGATT
B31: UCGCCUC (DNA:RNA)
RNA: B1 RNA with A25U, G26C, C27G, A28C, C30U, G31C
DNA 1: CAATCTGAATTCCGGTCTCCC
DNA 2: TGGTGGCTACGACGGGATT

Substitutions are numbered along the chain they refer to; changes in the protein carry UniProt numbers. This is one part of the list.

For this assay, the target named is T1, RBFOX1 RRM RbFoxmut (Fox-RRM*). Put plainly: EMSA; HiTS-Eq, 1 nM pool, 10 min; buffer printed only for the single-RNA assays: 10 mM Tris pH 7.5, 150 mM NaCl, 3.4 mM EDTA, 0.001% NP-40, 30 C. Particulars: tags: His6 N-terminal (pET28a); label: 5' 32P. The method in brief: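 Purified RbFox RRM, wild type or mutant, was incubated for 10 min in 50 µL with 1 nM of a 5′-radiolabelled RNA pool carrying 7 randomized nucleotides, whose flanks were annealed to DNA oligonucleotides, over a series of increasing protein concentrations. Unbound RNA was resolved on 8% native PAGE, cut out, reverse-transcribed, barcoded by PCR and sequenced on an Illumina HiSeq 2500. Relative association constants were derived from changes in read counts for each RNA species versus the control reaction and normalised to the cognate motif.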
Background: A gel shift assay detects complexes by their altered migration in electrophoresis.
On to B1, for which the binding signal is 0.104 KA relative to UGCAUGU.
The value for B2 was 0.0729 KA relative to UGCAUGU.
Take B3: the binding signal was 0.104 KA relative to UGCAUGU.
The value for B4 was 0.102 KA relative to UGCAUGU; that for B5 was 0.0815 KA relative to UGCAUGU.
The value for B6 was 0.0824 KA relative to UGCAUGU; that for B7 was 0.0549 KA relative to UGCAUGU; that for B8 was 0.104 KA relative to UGCAUGU.
As to B9, the binding signal is 0.436 KA relative to UGCAUGU.
To B10 belongs 0.0953 KA relative to UGCAUGU.
Take B11: the binding signal was 0.0681 KA relative to UGCAUGU.
The value for B12 was 0.107 KA relative to UGCAUGU.
To B13 belongs 0.0971 KA relative to UGCAUGU.
B14: the binding signal is 0.041 KA relative to UGCAUGU.
To B15 belongs 0.062 KA relative to UGCAUGU; to B16, 0.106 KA relative to UGCAUGU.
Take B17: the binding signal is 0.151 KA relative to UGCAUGU.
The value for B18 was 0.103 KA relative to UGCAUGU.
Take B19: the binding signal was 0.104 KA relative to UGCAUGU.
Regarding B20, the binding signal is 0.0659 KA relative to UGCAUGU.
B21: the binding signal was 0.141 KA relative to UGCAUGU.
To B22 belongs 0.0564 KA relative to UGCAUGU; to B23, 0.0949 KA relative to UGCAUGU; to B24, 0.134 KA relative to UGCAUGU.
The value for B25 was 0.191 KA relative to UGCAUGU.
As to B26, the binding signal was 0.198 KA relative to UGCAUGU.
To B27 belongs 0.0446 KA relative to UGCAUGU; to B28, 0.0958 KA relative to UGCAUGU; to B29, 0.0919 KA relative to UGCAUGU.
Turning to B30, the binding signal is 0.114 KA relative to UGCAUGU.
To B31 belongs 0.0842 KA relative to UGCAUGU.

For the origin of these results see PMC9911399, “Two distinct binding modes provide the RNA-binding protein RbFox with extraordinary sequence specificity”.
